# Measurements as given in the supplement of paper PMC8728848.
# This is one part of the list.
# Legend:
# Test in all cases: glycan array binding signal (z-score within array); higher = stronger binding
# Conditions in all cases: glycan notation: IUPAC condensed, linker removed
# [1] = target: Fuc(a1-2)[GalNAc(a1-3)]Gal(b1-3)GlcNAc(b1-6)GalNAc
# Summary of the method: (§1)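 Arrays were curated from the Consortium for Functional Glycomics database, 3228 in total, and kept only where the protein sequence was available. Binding is expressed as a within-array Z-score. This score was averaged across arrays of the same protein sequence at different concentrations or buffers and across linkers, and negative values can be read as non-binding.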
# [2] = target: Fuc(a1-2)[GalNAc(a1-3)]Gal(b1-4)Glc
# Summary of the method: as §1
# [3] = target: Fuc(a1-2)[GalNAc(a1-3)]Gal(b1-4)GlcNAc
# Summary of the method: as §1
# [4] = target: Fuc(a1-2)[GalNAc(a1-3)]Gal(b1-4)GlcNAc(b1-2)Man
# Summary of the method: as §1
# [5] = target: Fuc(a1-2)[GalNAc(a1-3)]Gal(b1-4)GlcNAc(b1-2)Man(a1-3)[Fuc(a1-2)[GalNAc(a1-3)]Gal(b1-4)GlcNAc(b1-2)Man(a1-6)]Man(b1-4)GlcNAc(b1-4)GlcNAc
# Summary of the method: as §1
# [6] = target: Fuc(a1-2)[GalNAc(a1-3)]Gal(b1-4)GlcNAc(b1-2)Man(a1-3)[Fuc(a1-2)[GalNAc(a1-3)]Gal(b1-4)GlcNAc(b1-2)Man(a1-6)]Man(b1-4)GlcNAc(b1-4)[Fuc(a1-6)]GlcNAc
# Summary of the method: as §1
# [7] = target: Fuc(a1-2)[GalNAc(a1-3)]Gal(b1-4)GlcNAc(b1-3)Gal(b1-4)GlcNAc
# Summary of the method: as §1
# [8] = target: Fuc(a1-2)[GalNAc(a1-3)]Gal(b1-4)GlcNAc(b1-3)Gal(b1-4)GlcNAc(b1-3)Gal(b1-4)GlcNAc
# Summary of the method: as §1
# [9] = target: Fuc(a1-2)[GalNAc(a1-3)]Gal(b1-4)GlcNAc(b1-3)GalNAc
# Summary of the method: as §1
# [10] = target: Fuc(a1-2)[GalNAc(a1-3)]Gal(b1-4)GlcNAc(b1-3)[Fuc(a1-2)[GalNAc(a1-3)]Gal(b1-4)GlcNAc(b1-6)]GalNAc
# Summary of the method: as §1
# [11] = target: Fuc(a1-2)[GalNAc(a1-3)]Gal(b1-4)GlcNAc(b1-6)GalNAc
# Summary of the method: as §1
# [12] = target: Fuc(a1-2)[GalNAc(a1-3)]Gal(b1-4)[Fuc(a1-3)]GlcNAc
# Summary of the method: as §1
# [13] = target: Fuc(a1-2)[GalNAc(a1-3)]Gal(b1-4)[Fuc(a1-3)]GlcNAc(b1-3)GalNAc
# Summary of the method: as §1
# [14] = target: Fuc(a1-2)[GalNAc(a1-4)]Gal(b1-4)GlcNAc
# Summary of the method: as §1
# [15] = target: Fuc(a1-2)[GalNAc(b1-3)]Gal
# Summary of the method: as §1
# Fuc(a1-3)GlcNAc = target: Fuc(a1-3)GlcNAc
# Summary of the method: as §1
# [16] = target: Fuc(a1-3)[Gal(b1-4)]Glc6S
# Summary of the method: as §1
# [17] = target: Fuc(a1-3)[Gal(b1-4)]GlcNAc
# Summary of the method: as §1
# [18] = target: Fuc(a1-3)[Gal(b1-4)]GlcNAc(b1-2)Man
# Summary of the method: as §1
# [19] = target: Fuc(a1-3)[Gal(b1-4)]GlcNAc(b1-2)Man(a1-3)[Fuc(a1-3)[Gal(b1-4)]GlcNAc(b1-2)Man(a1-6)]Man(b1-4)GlcNAc(b1-4)GlcNAc
# Summary of the method: as §1
# [20] = target: Fuc(a1-3)[Gal(b1-4)]GlcNAc(b1-2)Man(a1-3)[Fuc(a1-3)[Gal(b1-4)]GlcNAc(b1-2)Man(a1-6)]Man(b1-4)GlcNAc(b1-4)[Fuc(a1-6)]GlcNAc
# Summary of the method: as §1
# [21] = target: Fuc(a1-3)[Gal(b1-4)]GlcNAc(b1-3)Gal(b1-3)[Fuc(a1-4)]GlcNAc
# Summary of the method: as §1
# [22] = target: Fuc(a1-3)[Gal(b1-4)]GlcNAc(b1-3)GalNAc
# Summary of the method: as §1
# [23] = target: Fuc(a1-3)[Gal(b1-4)]GlcNAc(b1-4)Gal(b1-4)[Fuc(a1-3)]GlcNAc
# Summary of the method: as §1
# [24] = target: Fuc(a1-3)[Gal(b1-4)]GlcNAc(b1-4)Gal(b1-4)[Fuc(a1-3)]GlcNAc(b1-4)Gal(b1-4)[Fuc(a1-3)]GlcNAc
# Summary of the method: as §1
# [25] = target: Fuc(a1-3)[Gal(b1-4)]GlcNAc(b1-6)GalNAc
# Summary of the method: as §1
# [26] = target: Fuc(a1-3)[Gal(b1-4)]GlcNAc(b1-6)[Gal(b1-3)GlcNAc(b1-3)]Gal(b1-4)Glc
# Summary of the method: as §1
# [27] = target: Fuc(a1-3)[Gal(b1-4)]GlcNAc6S
# Summary of the method: as §1
# [28] = target: Fuc(a1-3)[Gal3S(b1-4)]Glc
# Summary of the method: as §1
# [29] = target: Fuc(a1-3)[Gal3S(b1-4)]GlcNAc
# Summary of the method: as §1
# [30] = target: Fuc(a1-3)[Gal3S(b1-4)]GlcNAc6S
# Summary of the method: as §1
# [31] = target: Fuc(a1-3)[GalNAc(b1-4)]GlcNAc
# Summary of the method: as §1
# [32] = target: Fuc(a1-3)[GalNAc(b1-4)]GlcNAc6S
# Summary of the method: as §1
# Fuc(a1-4)GlcNAc = target: Fuc(a1-4)GlcNAc
# Summary of the method: as §1
# Fuc(b1-3)GlcNAc = target: Fuc(b1-3)GlcNAc
# Summary of the method: as §1
# Gal(a1-2)Gal = target: Gal(a1-2)Gal
# Summary of the method: as §1
# Gal(a1-3)Gal = target: Gal(a1-3)Gal
# Summary of the method: as §1
binder,measurement,setting,value
"mCC1-Hexahis-Precomplexed (Mus musculus), P31809 (protein) MELASAHLHKGQVPWGGLLLTASLLASWSPATTAEVTIEAVPPQVAEDNNVLLLVHNLPLALGAFAWYKGNTTAIDKEIARFVPNSNMNFTGQAYSGREIIYSNGSLLFQMITMKDMGVYTLDMTDENYRRTQATVRFHVHPILLKPNITSNNSNPVEGDDSVSLTCDSYTDPDNINYLWSRNGESLSEGDRLKLSEGNRTLTLLNVTRNDTGPYVCETRNPVSVNRSDPFSLNIIYGPDTPIISPSDIYLHPGSNLNLSCHAASNPPAQYFWLINEKPHASSQELFIPNITTNNSGTYTCFVNNSVTGLSRTTVKNITVLEPVTQPFLQVTNTTVKELDSVTLTCLSNDIGANIQWLFNSQSLQLTERMTLSQNNSILRIDPIKREDAGEYQCEISNPVSVRRSNSIKLDIIFDPTQGGLSDGHHHHHH",glycan array binding signal (z-score),[1],-0.269
same,glycan array binding signal (z-score),[2],-0.112
same,glycan array binding signal (z-score),[3],-0.219
same,glycan array binding signal (z-score),[4],-0.158
same,glycan array binding signal (z-score),[5],-0.041
same,glycan array binding signal (z-score),[6],-0.068
same,glycan array binding signal (z-score),[7],-0.289
same,glycan array binding signal (z-score),[8],1.36
same,glycan array binding signal (z-score),[9],-0.163
same,glycan array binding signal (z-score),[10],-0.12
same,glycan array binding signal (z-score),[11],-0.236
same,glycan array binding signal (z-score),[12],0.277
same,glycan array binding signal (z-score),[13],-0.07
same,glycan array binding signal (z-score),[14],-0.202
same,glycan array binding signal (z-score),[15],-0.122
same,glycan array binding signal (z-score),Fuc(a1-3)GlcNAc,-0.297
same,glycan array binding signal (z-score),[16],-0.143
same,glycan array binding signal (z-score),[17],-0.206
same,glycan array binding signal (z-score),[18],-0.272
same,glycan array binding signal (z-score),[19],-0.155
same,glycan array binding signal (z-score),[20],-0.138
same,glycan array binding signal (z-score),[21],0.197
same,glycan array binding signal (z-score),[22],-0.171
same,glycan array binding signal (z-score),[23],-0.175
same,glycan array binding signal (z-score),[24],-0.094
same,glycan array binding signal (z-score),[25],-0.024
same,glycan array binding signal (z-score),[26],-0.188
same,glycan array binding signal (z-score),[27],-0.122
same,glycan array binding signal (z-score),[28],-0.168
same,glycan array binding signal (z-score),[29],-0.034
same,glycan array binding signal (z-score),[30],-0.213
same,glycan array binding signal (z-score),[31],-0.088
same,glycan array binding signal (z-score),[32],-0.231
same,glycan array binding signal (z-score),Fuc(a1-4)GlcNAc,-0.27
same,glycan array binding signal (z-score),Fuc(b1-3)GlcNAc,-0.183
same,glycan array binding signal (z-score),Gal(a1-2)Gal,-0.219
same,glycan array binding signal (z-score),Gal(a1-3)Gal,-0.022
